# The supplement of paper PMC4166925
# ± gives the standard deviation of the averaged measurements. Over roughly 33,000 sequences, “E-score (dimensionless, -0.5 to 0.5)” has its median near -0.049; the highest 2% begin near 0.37. This is one part of the list.
# System: T1, PmTbr T-box DNA-binding domain (GST fusion)
# T1 sequence: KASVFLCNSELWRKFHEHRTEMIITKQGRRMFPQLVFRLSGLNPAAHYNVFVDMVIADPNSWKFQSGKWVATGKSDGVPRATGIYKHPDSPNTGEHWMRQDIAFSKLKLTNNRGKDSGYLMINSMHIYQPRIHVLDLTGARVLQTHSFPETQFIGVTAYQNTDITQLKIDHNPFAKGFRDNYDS
# Experiment: PBM E-score of 8-mer (E-score (dimensionless, -0.5 to 0.5)); Tbr is Tbrain of the sea star Patiria miniata (Pm) or the sea urchin Strongylocentrotus purpuratus (Sp); higher = stronger binding preference; most listed sequences are background and not binding sites
# Settings: the construct has about 5 more residues each side
# Outline: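 Universal Agilent oligonucleotide arrays, made double-stranded by primer extension, were incubated with 200 nM GST-fused Tbr T-box DNA-binding domain in PBS (pH 7.5). The protein was expressed in BL21 E. coli at 20 °C and purified by glutathione affinity chromatography. After scanning and quantification, the Universal PBM Analysis Suite assigned an enrichment E-score to each ungapped 8-mer, averaged over duplicate arrays.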
row,Sequence,PBM E-score of 8-mer
1,ACGTCAAG,0.0181 ± 0.047
2,AAGGCACA,-0.168 ± 0.042
3,GGTCATAA,-0.21 ± 0.0042
4,CATCGAGG,-0.0784 ± 0.06
5,AGTGCCCC,-0.173 ± 0.11
6,GTGCTCAA,-0.188 ± 0.027
7,CCTCCCCC,0.00104 ± 0.014
8,TAGGGTAA,-0.0929 ± 0.022
9,ACGTGAAA,0.098 ± 0.075
10,CGCCATTC,0.212 ± 0.014
11,ATCATGAT,-0.00826 ± 0.057
12,ACCCACTA,-0.00321 ± 0.017
13,GGCGCGAC,0.377 ± 0.025
14,AGAAAGTA,-0.0263 ± 0.14
15,CCGTGCAC,-0.0742 ± 0.048
16,AAATGCCA,0.0452 ± 0.0051
17,ACGTGTAA,0.31 ± 0.0077
18,AAGCGCAG,0 ± 0.06
19,ATCCTCCC,-0.119 ± 0.0046
20,AGGCGGGG,-0.0429 ± 0.052
21,CATTACCA,-0.0668 ± 0.0072
22,CAAGGACC,-0.212 ± 0.036
23,CCTTACTA,0.0144 ± 0.052
24,ACACTGTA,0.178 ± 0.0039
25,TCTCTCCA,-0.117 ± 0.068

row,Sequence,PBM E-score of 8-mer
1,TCCCAGAA,-0.0343 ± 0.051
2,ATTATTTA,-0.0583 ± 0.074
3,ATATTCGA,-0.0346 ± 0.071
4,AGCGTACC,-0.233 ± 0.018
5,CCCGAATC,0.00343 ± 0.029
6,GTATGCGA,-0.0624 ± 0.0048
7,TCGCCTCA,0.162 ± 0.025
8,AATCAATC,-0.0715 ± 0.024
9,CTCCGTTA,0.00137 ± 0.068
10,GATGTTAA,-0.0968 ± 0.0093
11,ACAGATAA,0.0605 ± 0.021
12,ACAATGAG,-0.0237 ± 0.009
13,CCACGCTC,0.0186 ± 0.12
14,ATCGACAC,0.398 ± 0.025
15,ACGGTGAC,0.285 ± 0.0079
16,CTTCACAA,0.225 ± 0.058
17,GCGAAGTA,0.262 ± 0.037
18,CACGGTGG,0.104 ± 0.027
19,ACCGGGGC,-0.0516 ± 0.04
20,AAGCGGAC,-0.232 ± 0.016
21,CGAGAAAC,0.121 ± 0.015
22,ATTCGCTG,-0.172 ± 0.036
23,AACCGCTT,-0.158 ± 0.071
24,ATCGGGAG,-0.0243 ± 0.00094
25,GACCGCGC,0.0617 ± 0.021

row,Sequence,PBM E-score of 8-mer
1,TACCATGA,-0.158 ± 0.034
2,AGGGCCCG,-0.135 ± 0.058
3,ACCAATCA,-0.0557 ± 0.044
4,GTCTTTCA,-0.0206 ± 0.036
5,ACGTTTGC,0.0202 ± 0.072
6,ACAGACAT,0.0773 ± 0.016
7,CAATTAGC,0.022 ± 0.03
8,CCGTCATA,0.115 ± 0.028
9,ACACTTTA,0.338 ± 0.029
10,CTGATAAG,-0.0195 ± 0.063
11,ACTAACTC,-0.0389 ± 0.019
12,ACGTCGAT,-0.00998 ± 0.039
13,CCCCCACA,-0.178 ± 0.043
14,CCACGCCC,6.5e-05 ± 0.0061
15,ACTTGTCT,0.14 ± 0.017
16,AGACGGGA,0.0086 ± 0.0017
17,ATTCTCCA,0.012 ± 0.038
18,CTGCCGAC,0.118 ± 0.069
19,CCCCGGAA,-0.119 ± 0.011
20,CAACCTGG,0.0279 ± 0.013
21,ACATAAAA,0.0836 ± 0.13
22,AAATCAGA,-0.231 ± 0.049
23,ATCTTTCG,-0.0201 ± 0.0048
24,AACAGTGG,0.0244 ± 0.0038
25,CCTACCCC,-0.152 ± 0.039

row,Sequence,PBM E-score of 8-mer
1,GATAGTAC,-0.0971 ± 0.036
2,CAGGCACA,0.108 ± 0.086
3,CTAGATGA,-0.212 ± 0.017
4,AGAGGTGC,0.411 ± 0.0084
5,GAGGTTTA,-0.0468 ± 0.025
6,GTAATAAC,-0.151 ± 0.064
7,GTGCTGGA,0.0191 ± 0.074
8,ATGCCGGC,-0.0777 ± 0.025
9,ACGCTAAC,0.257 ± 0.056
10,GCGACCGC,0.087 ± 0.13
11,GCAAGATA,-0.0355 ± 0.012
12,CCTGTGGA,-0.0641 ± 0.029
13,ACCCCGCG,0.226 ± 0.012
14,CCCCCAAC,-0.0241 ± 0.11
15,GTAGCAGA,-0.0907 ± 0.0014
16,AAGGAAGC,-0.0628 ± 0.053
17,TAGAACCA,-0.215 ± 0.075
18,GACGCCAC,0.114 ± 0.043
19,ATCGGACC,-0.189 ± 0.0051
20,ATTTAGAG,-0.17 ± 0.077
21,AAGCGTTA,0.187 ± 0.077
22,CAATTTGC,0.0919 ± 0.073
23,GCCCTTCC,-0.151 ± 0.028
24,AGTGAGTC,-0.0283 ± 0.033
25,ACCTCAGT,0.152 ± 0.024

row,Sequence,PBM E-score of 8-mer
1,AGCAGTGA,-0.0556 ± 0.013
2,AGGGTCGA,-0.0873 ± 0.054
3,CCTCAAAG,-0.0193 ± 0.016
4,ATGGTGGA,-0.344 ± 0.04
5,AACTGTCT,0.102 ± 0.027
6,CCGTTTAG,0.0579 ± 0.001
7,ATATGCAG,0.0698 ± 0.046
8,GCTGGTCA,-0.0258 ± 0.028
9,AGTCTACA,-0.203 ± 0.08
10,CAACTGTG,0.231 ± 0.015
11,AGGGGGCG,0.164 ± 0.09
12,AGTTCAAC,-0.021 ± 0.0013
13,ATACTCAA,-0.194 ± 0.011
14,CTCCAACA,0.153 ± 0.0093
15,CATACGAC,-0.143 ± 0.049
16,CATTAGGC,0.00258 ± 0.0073
17,CATGCCGA,-0.0134 ± 0.033
18,CTCTATAC,-0.177 ± 0.0022
19,AGCGCTAA,0.362 ± 0.02
20,ACCGTTTA,-0.0705 ± 0.024
21,AAGTTAAG,-0.234 ± 0.019
22,ATTAGTGG,0.026 ± 0.014
23,TCTAGAAA,-0.0404 ± 0.059
24,TAATACGA,-0.147 ± 0.047
25,CAATCCCC,-0.071 ± 0.04

row,Sequence,PBM E-score of 8-mer
1,AGACCTAA,-0.0394 ± 0.017
2,GATATGAC,-0.0509 ± 0.046
3,GGACTCCC,-0.185 ± 0.003
4,AAATACAG,-0.102 ± 0.0019
5,AATGTGGT,0.0377 ± 0.043
6,TAACAAGA,0.0263 ± 0.085
7,AATAACCC,-0.0826 ± 0.041
8,CGGACTCA,-0.0531 ± 0.099
9,ATGCAGTG,-0.0626 ± 0.0092
10,AATTCGCT,0.00911 ± 0.0077
11,AGCGTGAG,0.24 ± 0.042
12,AGGGCTTA,-0.238 ± 0.059
13,ACCTTCCA,0.0703 ± 0.049
14,ACGACCTA,0.0469 ± 0.0017
15,CGTCACTC,0.26 ± 0.035
16,TCACGCAA,0.23 ± 0.022
17,AGGGGCTA,-0.0402 ± 0.059
18,CGTGCCAA,0.324 ± 0.0048
19,GAGCTGTA,-0.0747 ± 0.051
20,CCCTGTTA,0.14 ± 0.0042
21,GGCGGCAC,0.178 ± 0.0052
22,AGTGGTGG,0.0989 ± 0.0074
23,AAATAAAT,-0.1 ± 0.085
24,CATGTGCG,0.193 ± 0.035
25,TATAGATA,-0.21 ± 0.065

row,Sequence,PBM E-score of 8-mer
1,CTGGGTCA,-0.182 ± 0.036
2,ATTCAACG,0.00787 ± 0.033
3,ATTGTAAA,-0.0342 ± 0.055
4,ACCTATAC,0.0993 ± 0.049
5,ATGGACTC,-0.231 ± 0.017
6,ATACTTAG,-0.0881 ± 0.025
7,GGCCTGCA,-0.241 ± 0.05
8,AGTTTTCG,0.0439 ± 0.008
9,GGGGCAAC,-0.152 ± 0.011
10,CCCTCATA,0.0904 ± 0.054
11,GCATGGGC,0.075 ± 0.043
12,ATTTCTGA,-0.0775 ± 0.065
13,TACCACCA,0.106 ± 0.0074
14,CTAAACGC,0.0238 ± 0.063
15,AAGCCCCC,-0.289 ± 0.0095
16,ACCGTAAC,-0.0607 ± 0.0048
17,AGACTAAC,0.158 ± 0.012
18,CGGACCAA,-0.351 ± 0.047
19,GGGAGTTA,-0.126 ± 0.084
20,CGGGTCTC,-0.0249 ± 0.063
21,AACCAGAT,-0.12 ± 0.095
22,GTTTCTGA,-0.115 ± 0.028
